Out of some 310,000 compounds screened, about 18,000 (5.8%) were called active. This list was built around the results that the source calls inconclusive (neither active nor inactive); the mix of calls is not that of the screen. Calls come from the whole dose curve; as a rule, active = well fitted inhibition curve with a large enough effect; inconclusive = small, poorly fitted or top-dose-only effect, or another doubt; inactive = no such curve, though single readings can be large or run the other way. Potencies of inconclusive entries are left out as doubtful fits.
Experiment: Primary qHTS for delayed death inhibitors of the malarial parasite plastid, 48 hour incubation
Conditions: P. falciparum luciferase growth in erythrocytes; series mostly up to 28.7 µM
How it was run: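 Here the parasites carry a stable luciferase gene and grow inside erythrocytes in Albumax-based RPMI medium with compound for one erythrocytic cycle. Activity is scored as loss of luminescent signal.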
Potency is the fitted concentration of half-maximal effect; tags give direction and shape of the fitted curve.

With `COc1ccc(NC(=O)CS(=O)CC(=O)Nc2cccc3cccnc23)cc1` (stereo not given) as the molecule, how does the Potency read?
The Potency was “inactive”.

For `CCOc1ccc(NC(=O)c2ccc(N3CC4CC(C3)c3cccc(=O)n3C4)c(NC(=O)CCN3CCOCC3)c2)cc1` (stereo not given), which Potency is on record?
Its Potency is inconclusive [inhibitor, partial curve].

With `O=c1n(Cc2ccccc2)nc2n1-c1ccccc1SC2` as the molecule, how does the Potency read?
Its Potency is inconclusive [inhibitor, partial curve, poor fit].

With `Cc1cc(NC(=O)CCC(=O)N(c2ccccc2)C2(C(=O)NC3CCCCC3)CCCC2)no1` as the molecule, how does the Potency read?
Its Potency is inconclusive [inhibitor, single point].

Which Potency does the source give for `O=C(NNC(=O)C1CCC1)c1ccccc1F` here?
The Potency was “inactive”.

With `COc1ccc(-c2sc3cc(OC)c(OC)cc3c2C#CC(C)(C)O)cc1` as the molecule, how does the Potency read?
The Potency was inconclusive [inhibitor, single point].

With `Cc1ccc(S(=O)(=O)N2CCOC2CNC(=O)C(=O)NCc2ccc(Cl)cc2)cc1` (stereo not given) as the molecule, how does the Potency read?
The Potency was “inactive”.

For `CCOC(=O)c1cc(C#N)c(N2CCN(C(=O)c3cccc(C(F)(F)F)c3)CC2)nc1C(F)(F)F`, which Potency is on record?
The Potency was active: 5.86 µM.

For `CS(=O)(=O)c1cccc(-c2nnc(NC(=O)c3ccc(S(=O)(=O)N4CCCC4)cc3)o2)c1`, which Potency is on record?
The Potency was inconclusive [inhibitor, partial curve].

For `CN(C)S(=O)(=O)n1cc(/C=C(\NC(=O)c2ccccc2F)C(=O)N2CCCC2)c2ccccc21`, which Potency is on record?
Its Potency is inconclusive [inhibitor, partial curve, poor fit].

With `Cc1ccccc1OCC(=O)Nc1cccc(S(=O)(=O)NC2=NCCCCC2)c1` as the molecule, how does the Potency read?
The Potency was inconclusive [inhibitor, partial curve, poor fit].

For `O=[N+]([O-])c1cccc(NC(=S)Nc2nc(-c3ccccc3Cl)cs2)c1`, which Potency is on record?
Its Potency is inconclusive [inhibitor, single point].

With `CC(C)(C)OC(=O)N1CCC(c2cc(=O)n3[nH]cc(C(=O)Nc4ccc(F)c(Cl)c4)c3n2)CC1` as the molecule, how does the Potency read?
The Potency was inconclusive [inhibitor, partial curve].

For `CCc1noc(C)c1C(=O)N1CCN(c2cccc(C)c2C)CC1`, which Potency is on record?
The Potency was inconclusive [inhibitor, single point].

For `COc1ccc(Cl)cc1-c1nc(SCC(=O)NC(C)(C)C)n[nH]1`, which Potency is on record?
Its Potency is inconclusive [inhibitor, full curve, poor fit].

Which Potency does the source give for `O=C(CSc1ccc2nnc(-c3ccccc3)n2n1)NCc1ccco1` here?
The Potency was inconclusive [inhibitor, single point].

For `COc1cc(OC)cc(C(=O)N[C@H](C(=O)NC23CC4CC(CC(C4)C2)C3)C(C)C)c1`, which Potency is on record?
The Potency was active: 10.4 µM.

For `CCN(CC)C(=O)Oc1ccc(Br)cc1C(=O)Nc1ccc(F)c(Cl)c1`, which Potency is on record?
The Potency was active: 9.28 µM.

With `COc1ccc(N2CC(C)Cn3c2nc2c3c(=O)n(CCc3ccccc3)c(=O)n2C)cc1` (stereo not given) as the molecule, how does the Potency read?
Its Potency is inconclusive [inhibitor, single point].

For `COc1ccc(Cc2[nH]n3c(=O)cc(C(C)C)nc3c2-c2ccccc2)cc1`, which Potency is on record?
The Potency was inconclusive [inhibitor, single point].

With `O=C(Nc1cnccn1)Nc1ccccc1Cl` as the molecule, how does the Potency read?
The Potency was “inactive”.

Which Potency does the source give for `O=C(Nc1ccnn1C1CCN(C/C=C/c2ccccc2)CC1)c1ccccc1Cl` here?
The Potency was inconclusive [inhibitor, single point].

With `CCCCCCCCCCCCCCCCOCCOCCOCCOCCOCCOCCOCCOCCOCCOCCOCCOCCOCCOCCOCCOCCOCCOCCOCCOCCO` as the molecule, how does the Potency read?
The Potency was active: 13.5 µM.

With `Cc1cccc(Cn2cc3c(=O)n(Cc4cccc(F)c4)nc-3c3ccccc32)c1` as the molecule, how does the Potency read?
The Potency was inconclusive [inhibitor, partial curve].

Which Potency does the source give for `NNC(=O)CNC(c1ccccc1)c1cc(Br)ccc1N` (stereo not given) here?
The Potency was inconclusive [inhibitor, partial curve].

For `Cn1c[n+](C)cc1-c1ccc(/C(N)=N/O)cc1`, which Potency is on record?
Its Potency is inconclusive [inhibitor, partial curve].

For `COc1ccc(C(C)=O)cc1CC(C(=O)c1ccc(Br)cc1)N(C)C` (stereo not given), which Potency is on record?
Its Potency is inconclusive [inhibitor, single point].

For `Cc1cccc(CNc2ccc(C(CC(N)=O)NC(=O)Cc3cccc4ccccc34)cc2[N+](=O)[O-])c1` (stereo not given), which Potency is on record?
Its Potency is inconclusive [inhibitor, partial curve, poor fit].

Which Potency does the source give for `COc1cc(/C=N/NC(=O)c2ccc(NS(=O)(=O)c3cccs3)cc2)cc(OC)c1O` here?
Its Potency is “inactive”.

Which Potency does the source give for `CC(/C=C/c1cccc([N+](=O)[O-])c1)=N\NC(=O)c1ccncc1` here?
The Potency was inconclusive [inhibitor, single point].

For `CCCCNC(=O)CSc1nc(COc2ccccc2)nc2ccccc12`, which Potency is on record?
Its Potency is inconclusive [inhibitor, single point].

Which Potency does the source give for `O=C(O)c1ccc(N2C(=O)c3cccc(Oc4ccc(Cl)cc4)c3C2=O)cc1` here?
The Potency was “inactive”.

For `Cc1ccc(C(=O)Nc2ccc(C(=O)N/N=C/c3ccncc3)cc2)cc1`, which Potency is on record?
The Potency was “inactive”.

For `COC(=O)C1[C@@H](OC)C(OC(=O)COc2ccc(OC)cc2)C[C@@H]2CN3CCc4c([nH]c5cc(OC)ccc45)[C@H]3C[C@H]12` (stereo not given in full), which Potency is on record?
The Potency was active: 8.49 µM.

Which Potency does the source give for `CCc1ccccc1NC(=O)C1CCCN1S(=O)(=O)c1ccc2c(c1)n(C)c(=O)c(=O)n2C` (stereo not given) here?
The Potency was inconclusive [inhibitor, partial curve].

For `COC(=O)c1ccc(N2CCN(C)CC2)c(NC(=O)c2ccc(Br)o2)c1`, which Potency is on record?
The Potency was inconclusive [inhibitor, partial curve, poor fit].

For `CCOc1ccc(NC(=O)CN(C)C(=O)c2sccc2-c2ccccc2)cc1OCC`, which Potency is on record?
The Potency was inconclusive [inhibitor, partial curve].

For `COc1ccc(N2CCN(C(=O)C3CCN(S(=O)(=O)c4ccc(C)cc4)CC3)CC2)cc1`, which Potency is on record?
Its Potency is inconclusive [inhibitor, partial curve].

With `COc1c2ccoc2nc2c(OC)c(OC[C@@H](O)C(C)(C)O)ccc12` as the molecule, how does the Potency read?
The Potency was inconclusive [inhibitor, single point].

With `CC(C)OC(=O)c1cccnc1N1CCN(c2ccc(F)cc2)CC1` as the molecule, how does the Potency read?
The Potency was “inactive”.

Which Potency does the source give for `COC(=O)c1ccc(=O)c2nc3/c(=C/O)c(O)cc(=O)c3[nH]c12` here?
Its Potency is inconclusive [inhibitor, full curve].

With `CCOC(=O)c1sc2c(c1C)c(=O)n(Cc1ccccc1)c(=O)n2CCN(C)C` as the molecule, how does the Potency read?
Its Potency is inconclusive [inhibitor, partial curve].

For `CCC(=O)N1CCN(c2ccnc3cc(Cl)ccc23)CC1`, which Potency is on record?
The Potency was active: 13.1 µM.

Which Potency does the source give for `Cc1cc(C)c(Cn2c3ccccc3c3cnn(CC(=O)NCc4ccccn4)c(=O)c32)c(C)c1` here?
Its Potency is inconclusive [inhibitor, partial curve].

For `CN(C)S(=O)(=O)c1ccc(NC(=O)N2CCN(c3ccccc3Cl)CC2)cc1`, which Potency is on record?
Its Potency is active: 13.1 µM.

For `CC(C)OCCCNC(=O)c1cn(C)c2ccc(S(=O)(=O)N3CCCC3)cc2c1=O`, which Potency is on record?
Its Potency is inconclusive [inhibitor, single point].

With `Cn1c(C(=O)NCCCN2CCCCCC2)cc2c(=O)n(C)c3ccccc3c21` as the molecule, how does the Potency read?
Its Potency is active: 3.29 µM.

With `O=C(Nc1ccccc1N1CCCCC1)C1CCN(S(=O)(=O)c2cccc(C(F)(F)F)c2)CC1` as the molecule, how does the Potency read?
The Potency was active: 8.28 µM.

For `CC(C)c1nc2c(c(=O)c3ccccc3n2C)c(=O)n1CCc1ccccc1`, which Potency is on record?
Its Potency is inconclusive [inhibitor, partial curve, poor fit].

Which Potency does the source give for `COc1cccc(N2CCN(c3nc(-c4ccccc4C)cc(=O)[nH]3)CC2)c1` here?
The Potency was inconclusive [inhibitor, single point].

For `COc1ccc(-n2nc3c(N4CCC(C(=O)N5CCCCCC5)CC4)nnc(C)c3c2C)cc1`, which Potency is on record?
The Potency was inconclusive [inhibitor, partial curve].

For `N#CCSc1nnc(-c2cccnc2)n1-c1ccccc1`, which Potency is on record?
Its Potency is “inactive”.

Which Potency does the source give for `OC1(c2ccc(F)cc2)CSC(=Nc2cccnc2)N1Cc1ccco1` (stereo not given) here?
Its Potency is active: 5.86 µM.

With `COc1ccc(N2CC(O)(c3ccc(C)cc3)[N+]3=C2CCCC3)cc1` (stereo not given) as the molecule, how does the Potency read?
The Potency was “inactive”.

Which Potency does the source give for `CCOCCCNC(=O)C(c1ccc(C)cc1)N(Cc1cccs1)C(=O)c1ccccc1O` (stereo not given) here?
Its Potency is inconclusive [inhibitor, single point].

With `NC(N)=NCCCC(NC(=O)c1ccccc1)C(=O)Nc1ccc([N+](=O)[O-])cc1` (stereo not given) as the molecule, how does the Potency read?
Its Potency is inconclusive [inhibitor, single point].

Which Potency does the source give for `COc1cccc(NC(=O)N2CCN(c3nc(-c4cccc(OC)c4)cs3)CC2)c1` here?
Its Potency is inconclusive [inhibitor, partial curve].

With `Cn1c2ccsc2c2cnn(Cc3ccc(F)cc3)c(=O)c21` as the molecule, how does the Potency read?
Its Potency is inconclusive [inhibitor, single point].

Which Potency does the source give for `CC(C)(C)c1ccc(O)cc1` here?
Its Potency is “inactive”.

For `O=C(NCCN1CCOCC1)c1ccc2c(c1)N(Cc1ccc(Cl)cc1)CCS2`, which Potency is on record?
The Potency was inconclusive [inhibitor, partial curve, poor fit].

With `N/C(Cc1ccc(Cl)c(Cl)c1)=N\OC(=O)c1ccc(Br)o1` as the molecule, how does the Potency read?
Its Potency is active: 14.7 µM.

With `COc1ccc(S(=O)(=O)NCC(c2ccco2)N2CCc3ccccc32)cc1` (stereo not given) as the molecule, how does the Potency read?
Its Potency is active: 9.28 µM.

With `COc1ccc(NS(=O)(=O)c2cccc(C(=O)NCc3cccnc3)c2)cc1` as the molecule, how does the Potency read?
Its Potency is inconclusive [inhibitor, single point].

Which Potency does the source give for `CCN(CC)c1ccc([N+](=O)[O-])cc1/C=N/NC(=O)CC#N` here?
The Potency was inconclusive [inhibitor, single point].

For `CN1CCN(CCCOc2ccc(-c3ccccc3)cc2)CC1`, which Potency is on record?
The Potency was inconclusive [inhibitor, single point].
